Reference: PubChem BioAssay (Tox21)
“And” between values parts separate entries of the source, which are not always exact repeats. Equal values may be shown once. The inconclusive results got no clear call from the source; some entries with a clear call stand among them for comparison. For part of these data: Where the call is inconclusive, the potency comes from a doubtful curve fit. The source holds several records for some structures; these can differ, active in one and inactive in another. The source made the active and inactive calls. Unless noted, calls follow the shape of the dose curve; as a rule, active = well fitted curve in the direction sought with a large enough effect in the repeat runs; inconclusive = weak or mixed curves; inactive = no such curve, though single readings can be large; an effect the other way counts as inactive or inconclusive.

Assays:
[1] = qHTS assay to identify small molecule antagonists of the retinoic acid receptor (RAR) signaling pathway (AID 1159552; also: nearly all actives have a fitted effect of over 50% in size)
Summary of the method: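 Using a RARE-driven luciferase construct in C3RL4 cells, retinol at 1 uM final provided the agonist stimulus while compounds were co-applied. After 6 hours at 37 C, luminescence was recorded to flag inhibitors of retinol signaling.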

[2] = qHTS assay to identify small molecule agonists of the retinoic acid receptor (RAR) signaling pathway (AID 1159553); conditions: C3RL4 RARE luciferase reporter, agonist, 6 h; activation: at 73.3 µM (top of the series) unless noted; as to activation: % is scaled to controls: 0 for no effect and ±100 for the full control effect
Summary of the method: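 C3RL4 cells carrying a RARE luciferase reporter were plated overnight at 37 C, then exposed to compounds in DMSO for 6 hr at 37 C and 5% CO2. Luminescence was read 30 min after luciferase reagent addition at room temperature.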

[3] = qHTS assay to identify small molecule antagonists of the estrogen related receptor (ERR) signaling pathway from Tox21 library - cell viability counter screen (AID 1224834); also: nearly all actives have a fitted effect of over 30% in size
Summary of the method: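 ERR reporter cells were plated 6 h before compound addition, then exposed to test compounds in DMSO for 17.5 h at 37 C. Viability was read as CellTiter-Fluor fluorescence after a 30-minute incubation at 37 C.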

[4] = tested on: estrogen-related receptor alpha (ERRalpha) with PGC-1alpha coactivator, human; experiment: qHTS assay to identify small molecule antagonists of the estrogen related receptor signaling pathway with the pleiotropic PPARgamma coactivator (PGC) (AID 1224821; calls by dose curve; also: nearly all actives have a fitted effect of over 50% in size)
Summary of the method: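 Luminescent read-out (One-Glo, 30 min at room temperature) following 18 h treatment of PGC/ERR cells at 37 C with compounds delivered in DMSO. Cells had settled 6 h at 37 C/5% CO2 before dosing.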

[5] = qHTS assay to identify small molecule antagonists of the estrogen related receptor (ERR) signaling pathway - cell viability counter screen (AID 1224818);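 also: viability measured after 17.5 h of compound exposure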
Summary of the method: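 ERR reporter cells plated 6 h at 37 C/5% CO2, then compounds in DMSO pin-transferred and incubated 17.5 h at 37 C. Viability read as CellTiter-Fluor fluorescence after 30 min at 37 C.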

[6] = qHTS assay to identify small molecule antagonists of the estrogen related receptor (ERR) signaling pathway (AID 1224819; also: nearly all actives have a fitted effect of over 50% in size)
Summary of the method: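 ERR reporter cells were plated at 2,000 cells/well and left 6 h at 37 C/5% CO2 before pin-tool transfer of compounds in DMSO. After 18 h at 37 C, One-Glo was added and luminescence was read 30 min later at room temperature.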

[7] = qHTS assay to identify small molecule antagonists of the estrogen related receptor signaling pathway with the pleiotropic PPARgamma coactivator (PGC) cell viability counter screen (AID 1224822)
Summary of the method: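 PGC/ERR cells were seeded at 2,000 cells/well, rested 6 h at 37 C/5% CO2, then given compounds in DMSO by pin tool and incubated 17.5 h at 37 C. Viability came from CellTiter-Fluor fluorescence after 30 min.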

[8] = target: Luciferin 4-monooxygenase (Photinus pyralis) (UniProt P08659); experiment: qHTS assay to identify small molecule inhibitors of firefly luciferase (AID 1224835); also: nearly all actives have a fitted effect of over 25% in size
Summary of the method: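 Inhibition of purified Photinus luciferase is measured by luminescence. Substrate levels (D-luciferin, ATP) sit at their KM values. Each compound is tested in a concentration series.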
Potency is read from the fitted curve at half-maximal effect; tags tell the direction and shape of the fitted curve.

Chain of UniProt P08659 (P08659 whole entry, looked up): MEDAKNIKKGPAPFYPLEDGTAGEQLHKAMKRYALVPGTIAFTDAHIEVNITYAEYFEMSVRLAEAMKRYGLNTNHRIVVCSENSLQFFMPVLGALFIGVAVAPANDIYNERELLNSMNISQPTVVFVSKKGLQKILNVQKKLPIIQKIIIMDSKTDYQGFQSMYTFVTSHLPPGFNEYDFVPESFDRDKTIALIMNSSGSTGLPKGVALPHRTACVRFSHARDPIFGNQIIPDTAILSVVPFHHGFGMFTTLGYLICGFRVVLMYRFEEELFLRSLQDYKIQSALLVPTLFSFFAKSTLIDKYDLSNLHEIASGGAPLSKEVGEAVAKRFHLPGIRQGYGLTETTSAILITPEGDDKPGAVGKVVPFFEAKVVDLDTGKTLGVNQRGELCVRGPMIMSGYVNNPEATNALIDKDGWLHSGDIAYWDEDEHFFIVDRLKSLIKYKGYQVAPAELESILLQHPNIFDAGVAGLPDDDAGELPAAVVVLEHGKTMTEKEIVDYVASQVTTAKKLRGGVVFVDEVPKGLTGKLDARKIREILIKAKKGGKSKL

With O[C@@H](CNC[C@H](O)[C@H]1CCc2cc(F)ccc2O1)[C@@H]1CCc2cc(F)ccc2O1 the Potency [1] was active: 29.8 µM, the Potency [2] was inconclusive: 29.8 µM [inhibitor] and the Potency [3] was active: 29.8 µM.

With COc1ccc(/C=C/C(=O)c2ccc(OC)cc2OC)cc1 the Potency [1] was “inactive” and the Potency [2] was active: 29.8 µM.

With CN1CCC(Nc2ncc3ncnc(Nc4ccc(F)c(Cl)c4)c3n2)CC1 the Potency [1] was inconclusive: 29.8 µM [inhibitor, single point] and the Potency [2] was inconclusive: 29.8 µM [inhibitor, partial curve, poor fit].

In the case of Nc1ccc2cc(S(=O)(=O)O)cc(O)c2c1N=Nc1ccccc1C(F)(F)F, the Potency [1] is reported as “inactive” and the Potency [3] is reported as inconclusive: 34.4 µM [cytotoxic, partial curve].

In the case of Cc1c(C(=O)NN2CCCCC2)nn(-c2ccc(Cl)cc2Cl)c1-c1ccc(Cl)cc1, the Potency [1] is reported as inconclusive: 33.5 µM [inhibitor, single point], the Potency [2] is reported as inconclusive: 29.8 µM [inhibitor] and the Potency [3] is reported as inconclusive: 37.6 µM [cytotoxic, single point].

In the case of Nc1c2c(nc3ccccc13)CCCC2O (stereo not drawn), the Potency [1] is reported as “inactive” and the Potency [4] is reported as “inactive”.

In the case of O=c1[nH][nH]c(=O)c2cc([N+](=O)[O-])ccc12, the Potency [1] is reported as inconclusive: 61.9 µM [inhibitor, partial curve, poor fit] and the Potency [2] is reported as inconclusive: 77.9 µM [activator, single point].

For O=C(O)Cc1ccc(Cl)cc1Cl, the Potency [1] was “inactive” and the activation [2] was inconclusive: -4.83% [phenotype inactive].

In the case of COCCOC(=O)C1=C(C)NC(C)=C(C(=O)OC/C=C/c2ccccc2)C1c1cccc([N+](=O)[O-])c1 (stereo not drawn), the Potency [1] is reported as inconclusive: 29.8 µM [inhibitor], the Potency [2] is reported as “inactive” and the Potency [5] is reported as inconclusive: 29.8 µM [cytotoxic, partial curve, poor fit]. For the same compound, the Potency [6] was active: 11.9 µM, the Potency [4] was active: 17.4 µM and the Potency [7] was inconclusive: 28.7 µM [cytotoxic].

For CCC(=O)c1ccc2c(c1)N(CCCN(C)C)c1ccccc1S2, the Potency [1] was inconclusive: 10.6 µM [inhibitor, full curve], the Potency [5] was inconclusive: 33.5 µM [cytotoxic, partial curve, poor fit] and the Potency [7] was inconclusive: 33.5 µM [cytotoxic, partial curve, poor fit]. For the same compound, the Potency [3] was active: 26.6 µM.

With Fc1ccc([C@@H]2CCNC[C@H]2COc2ccc3c(c2)OCO3)cc1 the Potency [1] was inconclusive: 26.6 µM [inhibitor, partial curve, poor fit], the Potency [5] was inconclusive: 24.6 µM [cytotoxic] and the Potency [7] was inconclusive: 26.6 µM [cytotoxic]. For the same compound, the Potency [3] was inconclusive: 29.8 µM [cytotoxic, partial curve].

In the case of CCCCC(=O)O[C@]1(C(=O)CO)[C@@H](C)C[C@H]2[C@@H]3CCC4=CC(=O)C=C[C@]4(C)[C@@]3(F)[C@@H](O)C[C@@]21C, the Potency [1] is reported as active: 61.1 µM and the Potency [3] is reported as inconclusive: 34.4 µM [cytotoxic, partial curve].

In the case of O=S(=O)(c1ccc(OCc2ccccc2)cc1)c1ccccc1O, the Potency [1] is reported as inconclusive: 68.6 µM [inhibitor, single point] and the Potency [3] is reported as inconclusive: 48.6 µM [cytotoxic, partial curve].

In the case of O=C(Nc1ccccc1)c1ccccc1O, the Potency [1] is reported as “inactive” and the Potency [3] is reported as inconclusive: 48.6 µM [cytotoxic, partial curve].

For CCc1cc2cc(OC)c(OC)cc2c(Cc2ccccc2)n1, the Potency [1] was inconclusive: 21.1 µM [inhibitor, partial curve] and the Potency [3] was inconclusive: 33.5 µM [cytotoxic, single point].

With C[C@]12CC[C@@H]3c4ccc(O)cc4CC[C@H]3[C@@H]1CC[C@@H]2O the Potency [1] was inconclusive: 15.3 µM [inhibitor, full curve] and inconclusive: 21.7 µM [inhibitor, partial curve], the Potency [2] was “inactive” and the Potency [6] was inconclusive: 12.8 µM [inhibitor]. For the same compound, the Potency [3] was active: 30.6 µM and active: 43.3 µM.

For CC12CC3CC(C)(C1)CC(N)(C3)C2, the Potency [1] was inconclusive: 23.7 µM [inhibitor, partial curve] and the Potency [8] was “inactive”.

For Oc1cccc2c(O)cccc12, the Potency [1] was inconclusive: 68.6 µM [inhibitor, single point], the Potency [3] was inconclusive: 27.3 µM [cytotoxic, partial curve] and the Potency [8] was inconclusive: 63.3 µM [inhibitor, partial curve].

In the case of CC(C)(Cc1c[nH]c2ccccc12)NCC(O)COc1ccccc1C#N (stereo not drawn), the Potency [1] is reported as “inactive” and the Potency [3] is reported as inconclusive: 33.5 µM [cytotoxic, single point].

In the case of O=C(Oc1ccccc1)c1ccccc1C(=O)Oc1ccccc1, the Potency [1] is reported as inconclusive: 48.6 µM [inhibitor] and the Potency [3] is reported as inconclusive: 68.6 µM [cytotoxic].

For CC1=C2[C@@H]([C@H](C)CC[C@H]2/C=C(\C)C(=O)O)[C@H](O)C1, the Potency [1] was inconclusive: 60.5 µM [inhibitor, partial curve, poor fit] and the Potency [2] was inconclusive: 76.2 µM [inhibitor, single point].

With Cc1c(C(=O)O)c(O)cc2c1C(=O)c1c(O)c([C@@H]3O[C@H](CO)[C@@H](O)[C@H](O)[C@H]3O)c(O)c(O)c1C2=O the Potency [1] was inconclusive: 33.5 µM [inhibitor, partial curve] and inconclusive: 54.5 µM [inhibitor, partial curve] and the Potency [3] was inconclusive: 10.6 µM [cytotoxic, partial curve].

In the case of c1ccc(C[P+](c2ccccc2)(c2ccccc2)c2ccccc2)cc1, the Potency [1] is reported as inconclusive: 27.3 µM [inhibitor] and the Potency [3] is reported as active: 21.7 µM.

For N=C(N)c1ccc(OCCCCCOc2ccc(C(=N)N)cc2)cc1, the Potency [1] was inconclusive: 58.4 µM [inhibitor] and the Potency [3] was inconclusive: 5.2 µM [cytotoxic, full curve].

With CCCCCCC[N+](CC)(CC)CCCCc1ccc(Cl)cc1 the Potency [1] was inconclusive: 29.8 µM [inhibitor] and the Potency [3] was active: 23.7 µM.

In the case of Oc1cccc(O)c1O, the Potency [1] is reported as “inactive”, the activation [2] is reported as active: 3.27% and the Potency [3] is reported as inconclusive: 60.6 µM [cytotoxic, single point].

For CCOC(=O)N1CCC(Nc2ccc(Cl)cc2N)CC1, the Potency [1] was inconclusive: 11.9 µM [inhibitor, partial curve] and the Potency [3] was inconclusive: 6.68 µM [cytotoxic, full curve].

In the case of OCCCCCCCCCCCCBr, the Potency [1] is reported as “inactive” and the Potency [3] is reported as inconclusive: 17.5 µM [cytotoxic, full curve].

With O[Si](c1ccccc1)(c1ccccc1)c1ccccc1 the Potency [1] was inconclusive: 68.6 µM [inhibitor, single point] and the Potency [3] was inconclusive: 68.6 µM [cytotoxic, single point].

With O=c1[nH]c2ccccc2n1CCCN1CCN(C(c2ccccc2)c2ccccc2)CC1 the Potency [1] was inconclusive: 33.5 µM [inhibitor], the Potency [2] was inconclusive: 29.8 µM [inhibitor, partial curve, poor fit] and the Potency [3] was active: 23.7 µM.

With ON=C1CCCC1 the Potency [1] was “inactive”, the Potency [2] was “inactive” and the Potency [3] was active: 25.2 µM.

For COc1ccc(S(=O)(=O)N2C(=O)[C@@](c3ccccc3OC)(N3C[C@H](O)C[C@H]3C(=O)N(C)C)c3cc(Cl)ccc32)c(OC)c1, the Potency [1] was inconclusive: 68.6 µM [inhibitor, single point] and the Potency [2] was “inactive”.

For O=C(O)CCCCCCCCCCCC(=O)O, the Potency [1] was “inactive”, the Potency [2] was inconclusive: 77 µM [activator, partial curve, poor fit] and the activation [2] was inconclusive: 1.17% [phenotype inactive]. For the same compound, the Potency [3] was “inactive”.

For COC(=O)C1=C(C)NC(C)=C(C(=O)OC(C)(C)CN(C)CCC(c2ccccc2)c2ccccc2)C1c1cccc([N+](=O)[O-])c1 (stereo not drawn), the Potency [1] was inconclusive: 16.8 µM [inhibitor, partial curve], the Potency [2] was inconclusive: 26.6 µM [inhibitor, partial curve] and the Potency [5] was inconclusive: 29.8 µM [cytotoxic]. For the same compound, the Potency [4] was active: 13.9 µM, the Potency [7] was inconclusive: 18.8 µM [cytotoxic] and the Potency [3] was active: 23.7 µM.

For COC(=O)c1ccc(C(=O)OC)cc1, the Potency [1] was inconclusive: 3.1 µM [inhibitor, full curve, poor fit], the Potency [3] was active: 24.7 µM and the Potency [8] was active: 32.1 µM and inactive.

In the case of CCCCCCCC(=O)Oc1c(Br)cc(C#N)cc1Br, the Potency [1] is reported as inconclusive: 68.3 µM [inhibitor, single point], the Potency [2] is reported as inconclusive: 68.3 µM [inhibitor, partial curve, poor fit] and the Potency [3] is reported as inconclusive: 60.9 µM [cytotoxic, single point].

In the case of Cc1cc(C(C)(C)C)cc(C)c1CC1=NCCN1, the Potency [1] is reported as “inactive” and the Potency [5] is reported as “inactive”.

With Oc1ccc2ccccc2c1 the Potency [1] was inconclusive: 39.5 µM [inhibitor, single point] and inactive and the Potency [2] was inconclusive: 31.4 µM [inhibitor, full curve].

In the case of CCCCCCCCCCCCCCN(CCO)CCO, the Potency [1] is reported as active: 30.6 µM and the activation [2] is reported as inconclusive: 7.75% [phenotype inactive].

With CNCc1ccc(NC(=O)c2c[nH]c3c2C(=O)CCC3)cc1 the Potency [2] was inconclusive: 30.6 µM [activator].

In the case of CC(C)=O, the Potency [2] is reported as “inactive”.

In the case of CC(C)COCC(CN(Cc1ccccc1)c1ccccc1)N1CCCC1 (stereo not drawn), the Potency [2] is reported as inconclusive: 23.7 µM [inhibitor, partial curve].

In the case of NS(=O)(=O)c1cc(C(=O)O)c(NCc2ccco2)cc1Cl, the Potency [2] is reported as “inactive”.

With CCC(Cl)CC(Cl)C(Cl)C(Cl)C(Cl)C(C)Cl (stereo not drawn) the Potency [2] was active: 0.133 µM.

In the case of CC1(C)CC(N=C=O)CC(C)(CN=C=O)C1 (stereo not drawn), the activation [2] is reported as inconclusive: -11.9% [phenotype inactive] [at 94.8 µM].
